These results are taken from PubChem BioAssay AID1240 (Sanford-Burnham Center for Chemical Genomics, 2008).

About 800 (1.6%) of roughly 50,000 compounds showed an effect of 50% or more. This is one part of the list.

This assay has as its target Bcl-2-like protein 10 (Homo sapiens) (UniProt Q9HD36). As to the kind of experiment: TR3 peptide-Bcl-B binding displacers, biochemical primary FP assay, phenotype converters (AID 1240).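 Further: 0% = Bcl-B with tracer peptide and DMSO and 100% = tracer peptide lacking Bcl-B.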 The following applies: GST-Bcl-B / FITC-TR3 peptide fluorescence polarization; stronger effect = higher value; compound at 3.75 mg/L.
Chain of UniProt Q9HD36 (Q9HD36 whole entry, looked up): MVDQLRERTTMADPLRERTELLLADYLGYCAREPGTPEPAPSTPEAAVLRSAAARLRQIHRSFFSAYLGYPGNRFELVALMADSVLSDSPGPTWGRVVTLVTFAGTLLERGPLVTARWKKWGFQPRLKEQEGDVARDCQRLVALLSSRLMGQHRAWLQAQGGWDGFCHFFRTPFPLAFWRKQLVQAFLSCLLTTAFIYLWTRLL
As for `Cc1ccccc1NC(=O)C1CC=CCC1C(=O)O` (stereo not given), the displacement was found to be 11.8%.
In the case of `CCOc1cc(/C=C2/SC(=S)NC2=O)cc(Br)c1OCc1ccc(F)cc1` it was 3.6%; in that of `CC(=O)Nc1ccc(S(=O)(=O)NCCSc2ccccn2)cc1`, 2.8%; in that of `CN(Cc1ccccc1)Cc1c(O)ccc2c(-c3ccccc3)cc(=O)oc12`, -2%.
In the case of `CCOC(=O)CP(=O)(c1ccc(Cl)cc1)c1ccc(Cl)cc1` it was 1.6%.
In the case of `O=C(COc1ccc(Cl)cc1Cl)Nc1ccc(Br)c(Cl)c1` it was -5.5%; in that of `O=C(c1cccnc1)N1N=C(c2ccncc2)CC1(O)C(F)(F)F` (stereo not given), -13.4%; in that of `CC1=C(C(=O)OC(C)C)C(c2ccccc2Cl)C2=C(CC(C)(C)CC2=O)N1` (stereo not given), 2.8%.
Regarding `COC(=O)c1c(NC(=O)C(F)(F)F)sc(/C(C)=C/C#N)c1C`, the displacement is 23.1%.
To `C=CCc1cccc(/C=N/NC(=O)CCC2C(=O)NN=C2C)c1O` (stereo not given) belongs -20.1%; to `O=C(CN1C(=O)/C(=C/c2ccccc2F)SC1=S)Nc1ccccc1F`, 2.1%.
To `O=C(O)CCC(NC(=O)c1ccc(I)cc1)C(=O)O` (stereo not given) belongs 1.2%; to `COc1cc(/C=C2\SC(=S)NC2=O)ccc1OCC(=O)O`, 3.8%.
Turning to `Cn1c(SCC(=O)N/N=C/c2ccccc2O)nc2ccccc21`, the displacement is -18%.
In the case of `CCOC(=O)C1CCN(C2CC(=O)N(c3ccc(C)cc3)C2=O)CC1` (stereo not given) it was 7.6%; in that of `O=C(Nc1ccc(F)c([N+](=O)[O-])c1)c1cc(Br)ccc1Cl`, 6.5%; in that of `Cc1ccc(NC(=O)c2cccc(C(=O)Nc3ccc(C)c(C)c3)c2)cc1C`, -0.1%.
In the case of `COc1ccc(/C=C/C(=O)Nc2cc(S(N)(=O)=O)ccc2C)cc1`, the displacement is -0.9%.
For the compound `O=C(Nc1cccc(NC(=O)c2ccccc2Cl)c1)c1ccc(-c2ccc(Br)cc2)o1`, the displacement stood at 57.3%.
To `COc1ccc(C(=O)Nc2ccc([N+](=O)[O-])cn2)cc1` belongs 0.3%; to `O=C(/C=C/c1ccc(-c2ccccc2[N+](=O)[O-])o1)c1ccc(F)cc1`, 16.8%; to `O=C(NN1C(=O)CSC1=S)c1ccccc1Cl`, -9.7%.
In the case of `COC(=O)CCN1C(=O)/C(=C\C=C\c2ccccc2)SC1=S` it was -150%.
Consider `CCC(CC)C(=O)N1CCN(c2cccc(Cl)c2)CC1`, for which the displacement came out at 9.4%.
On to `CC1=C(C#N)c2nc(N)c(C#N)c(C)c2/C1=C\c1ccc(C)o1`, for which the displacement was -4.4%.
As to `Cc1cc(C)nc(NC(N)=NC(C)(C)C)n1`, the displacement stood at 8.3%.
As to `COc1ccc(/C=N/OCC(=O)N2CCN(C(c3ccccc3)c3ccccc3)CC2)cc1OC`, the displacement turned out to be 0%.
To `CCOC(=O)c1c(-c2ccccc2)oc2ccc(OCC(=O)c3ccc(OC)cc3)cc12` belongs 13.1%; to `CC(=O)N1CCN(CC(C)(C)NS(=O)(=O)c2ccc(Cl)cc2)CC1`, 0.7%; to `COC(C(=O)NNC(=O)c1cccc(Cl)c1)c1ccccc1` (stereo not given), -5.9%.
To `Cc1c(C(=O)O/N=C(\N)c2ccc(Cl)cc2)cccc1[N+](=O)[O-]` belongs 2.7%.
In the case of `O=C1NCC(COc2ccc([N+](=O)[O-])cc2)O1` (stereo not given) it was 8.7%; in that of `CC1CN(C(=O)C2(C)CCCCC2)c2ccccc21` (stereo not given), 6.6%.
As to `COc1ccc(Cc2noc(-c3ccccc3C)n2)cc1`, the displacement was -6.7%.
To `O=c1n(Cc2ccc(Cl)cc2)c2cc([N+](=O)[O-])c([N+](=O)[O-])cc2n1Cc1ccc(Cl)cc1` belongs 5.7%; to `CS(=O)(=O)N1CCN(c2ccc([N+](=O)[O-])c3ncccc23)CC1`, -8%.
In the case of `CC1=NN(c2ccc(C)c(Cl)c2)C(=O)C1` it was 10.8%; in that of `CCNC(=S)NNC(=O)CSc1nc2ccccc2n1Cc1ccccc1`, -29.3%.
To `O=C(NCCCCCCNC(=O)c1ccc(CN2CCOCC2)cc1)c1ccc(CN2CCOCC2)cc1` belongs 0.8%; to `Cc1c(OCc2ccccc2)ccc2c3c(c(=O)oc12)CCCC3`, 1.9%.
Consider `CCCOc1cccc(-c2nnc(N)s2)c1`, for which the displacement worked out at 3.5%.
In the case of `COc1ccc(C2=C(NCCc3ccc(S(N)(=O)=O)cc3)c3ccccc3C2=O)cc1` it was 13%; in that of `CCOC(=O)c1c(NC(=O)CC2Nc3cc(C)c(C)cc3NC2=O)sc2c1CCCC2` (stereo not given), 48.8%; in that of `Cc1cc2c(cc1C)NC(c1ccsc1)C1=C(CC(C)(C)CC1=O)N2` (stereo not given), 4.5%.
In the case of `C=CCOC(=O)C1=C(C)NC(C)=C(C(=O)OCC=C)C1/C=C/c1ccccc1` it was 15.6%; in that of `O=C(O)CCn1c(O)c(C2=c3cc([N+](=O)[O-])ccc3=NC2=O)sc1=S`, 15.8%; in that of `N#C/C(=C\c1c[nH]c2ccccc12)C(=O)Nc1ccc(F)cc1`, 15.3%.
To `O=C1c2ccccc2C(=O)N1CCc1nc2ccccc2c(=O)n1-c1nccs1` belongs 11.6%; to `O=C(Nc1ccc2oc(-c3ccccc3F)nc2c1)c1cccc([N+](=O)[O-])c1`, -3.1%; to `COc1ccc(/C=C/C(=O)n2nnc3ccccc32)cc1`, -5.7%.
Take `Brc1ccc(OCCCCN2CCOCC2)cc1`: the displacement worked out at 13.2%.
To `COC(=O)C12CC3CC(CC(C(=O)OC)(C1)C31SCCS1)C21SCCS1` belongs -5.8%; to `COc1ccc(NC(=O)Cc2ccc(OC)c(OC)c2)c([N+](=O)[O-])c1`, -72.8%; to `Cc1cccc(N2C(=O)/C(=C/c3ccc(-c4cccc(Cl)c4)o3)SC2=S)c1`, 7.5%.
For `COc1ccc(N(CC(=O)NCc2ccccc2)S(C)(=O)=O)cc1`, the displacement was found to be 13.1%.
Regarding `C=CCN1C(=O)/C(=C/c2cc([N+](=O)[O-])ccc2OC)SC1=S`, the displacement is -1.8%.
As for `CCOC(=O)c1c(NC(=O)c2c(-c3ccccc3)noc2C)sc2c1CCC(CC)C2` (stereo not given), the displacement was -4.2%.
As to `COc1ccc(-c2nn(-c3ccccc3)cc2C=O)cc1[N+](=O)[O-]`, the displacement was -1.7%.
Consider `O=S(=O)(c1ccccc1)N1CCN(Cc2ccccc2F)CC1`, for which the displacement worked out at 1.5%.
To `CC(=O)Nc1ccc(S(=O)(=O)/N=C2/NC(=O)CS2)cc1` belongs -3.6%; to `Cn1c(=O)c2cc(C#N)c(N)nc2n(C)c1=O`, -4.4%.
To `CN(C)c1nccc(N(Cc2ccccc2)Cc2ccccc2)c1C#N` belongs 2.9%.
Consider `O=C(c1ccccc1F)N1CCN(Cc2ccc(F)cc2)CC1`, for which the displacement was -9.1%.
Take `COc1ccc(C(=O)N/N=C/c2ccncc2)cc1OC`: the displacement worked out at 0%.
In the case of `O=C(NCc1cccnc1)c1ccc2ccccc2c1` it was 2.2%.
In the case of `COC(=O)C1=C(C)N(c2cc(C)cc(C)c2)/C(=C\c2sccc2C)C1=O` it was 27%; in that of `Cc1cc(C)nc(SCCCCSc2nc(C)cc(C)n2)n1`, 1.1%.
Regarding `Cc1occc1-c1nc(-c2ccccc2)no1`, the displacement turned out to be 0.8%.
In the case of `O=C(Cn1nnc(-c2ccccc2)n1)Nc1cccc([N+](=O)[O-])c1` it was -5.4%.
For `CCCSc1nc2sc3c(c2c(=O)n1-c1ccc(C)cc1)CCN(Cc1ccccc1)C3`, the displacement is -4.4%.
